B1: PhoQ; a variant is named by its letters at X, in order, P23837 (parent)
chain: MKKLLRLFFPLSLRVRFLLATAAVVLVLSLAYGMVALIGYSVSFDKTTFRLLRGESNLFYTLAKWENNKLHVELPENIDKQSPTMTLIYDENGQLLWAQRDVPWLMKMIQPDWLKSNGFHEIEADVNDTSLLLSGDHSIQQQLQEVREDDDDAEMTHSVAVNVYPATSRMPKLTIVVVDTIPVELKSSYMVWSWFIYVLSANLLLVIPLLWVAAWWSLRPIEALAKEVRELEEHNRELLNPATTRELTSLVRNLNRLLKSERERYDKYRTTLTDLTHSLKTPLXXLQXXLRSLRSEKMSVSDAEPVMLEQISRISQQIGYYLHRASMRGGTLLSRELHPVAPLLDNLTSALNKVYQRKGVNISLDISPEISFVGEQNDFVEVMGNVLDNACKYCLEFVEISARQTDEHLYIVVEDDGPGIPLSKREVIFDRGQRVDTLRPGQGVGLAVAREITEQYEGKIVAGESMLGGARMEVIFGRQHSAPKDE

Enrichment ratio data for 195 variants are collected here from a collection of fitness landscapes (doi:10.1126/science.1257360).

Some of the results follow. Some results are limits rather than exact numbers.

Variants of B1 are the subject of the experiment. The experiment can be described thus: enrichment ratio after two sorts for PhoP signalling (ratio (wild type AVST 3.29)); higher = more functional. The settings on record: with PhoP (E. coli).
For the variant FHPQ, the enrichment ratio was not above 0.25.
In the case of RHMT, the enrichment ratio is not above 0.25.
As for KCHE, the figure is not above 0.25; as for SHFG, not above 0.25.
Turning to EFMC, the enrichment ratio was not above 0.25.
Consider VYKG, for which the enrichment ratio is not above 0.25.
In the case of WAIF, the enrichment ratio is not above 0.25.
As for YDNE, the enrichment ratio was not above 0.25.
As for PPKL, the figure is not above 0.25.
As for PPIY, the enrichment ratio was not above 0.25.
The result for WIRN reads not above 0.25.
Take ENQL: the enrichment ratio is not above 0.25.
WRKM: the enrichment ratio was not above 0.25.
Regarding AFME, the enrichment ratio is not above 0.25.
With FGHI, the enrichment ratio was not above 0.25.
The result for YLWY reads not above 0.25; that for SWQS, not above 0.25.
The result for FVTH reads not above 0.25; that for MGMP, not above 0.25.
The result for VVAF reads not above 0.25.
For the variant ASMQ, the enrichment ratio turned out to be 29.9.
Consider QKDR, for which the enrichment ratio is not above 0.25.
The result for KCHI reads not above 0.25; that for GPSQ, not above 0.25; that for DHPW, not above 0.25.
On to KWVF, for which the enrichment ratio was not above 0.25.
The result for NMIN reads not above 0.25; that for KYAT, not above 0.25; that for RDAS, not above 0.25.
The result for LTAH reads not above 0.25.
As for RLEK, the figure is not above 0.25.
Turning to TCSS, the enrichment ratio came to 15.
In the case of TTDA, the enrichment ratio was not above 0.25.
The result for PWAY reads not above 0.25; that for LPPP, not above 0.25.
The result for NDDT reads not above 0.25; that for WFRV, not above 0.25; that for QYPW, not above 0.25.
Regarding PDFT, the enrichment ratio was not above 0.25.
As for TYYC, the figure is not above 0.25.
For the variant SRQV, the enrichment ratio was not above 0.25.
As for DTSE, the figure is not above 0.25.
Regarding GPMQ, the enrichment ratio is not above 0.25.
As for DCER, the figure is not above 0.25.
With GHGG, the enrichment ratio was not above 0.25.
On to VSNF, for which the enrichment ratio is not above 0.25.
On to QMTS, for which the enrichment ratio is not above 0.25.
As for LVPM, the figure is not above 0.25; as for QFVA, not above 0.25.
As for DAMD, the figure is not above 0.25.
The result for EHRN reads not above 0.25; that for VQDQ, not above 0.25.
For the variant QLDG, the enrichment ratio is not above 0.25.
The result for DKRH reads not above 0.25; that for WYEH, not above 0.25.
As for NSES, the figure is not above 0.25; as for AEVE, 7.98; as for EMKA, not above 0.25.
As for RFAV, the figure is not above 0.25; as for GTPR, not above 0.25.
FECF: the enrichment ratio was not above 0.25.
The result for MWNT reads not above 0.25; that for KDDM, not above 0.25; that for VYYI, not above 0.25.
For SILD, the enrichment ratio was not above 0.25.
As for PFWR, the figure is not above 0.25; as for WSQW, not above 0.25.
As for NQYC, the figure is not above 0.25; as for HEGF, not above 0.25; as for AARQ, not above 0.25.
On to PQTH, for which the enrichment ratio was not above 0.25.
As for EPQP, the enrichment ratio was not above 0.25.
In the case of WTWT, the enrichment ratio was not above 0.25.
As for KQHT, the figure is not above 0.25.
Take WECL: the enrichment ratio is not above 0.25.
As for QLDD, the figure is not above 0.25; as for MDYY, not above 0.25.
For GYDQ, the enrichment ratio was not above 0.25.
Turning to QFFK, the enrichment ratio is not above 0.25.
The result for SASE reads 9.07; that for GMFF, not above 0.25.
For EWQP, the enrichment ratio was not above 0.25.
Regarding EIWN, the enrichment ratio was not above 0.25.
NFWG: the enrichment ratio is not above 0.25.
The result for GCDV reads not above 0.25; that for AMIY, not above 0.25; that for YEDG, not above 0.25.
Turning to EDWT, the enrichment ratio was not above 0.25.
As for TAFF, the figure is 0.622; as for WVTK, not above 0.25.
As for WAYH, the figure is not above 0.25; as for WNFS, not above 0.25.
The result for FDDK reads not above 0.25; that for EMDR, not above 0.25; that for IKTF, 0.442.
In the case of PWKY, the enrichment ratio is not above 0.25.
In the case of NLIK, the enrichment ratio is not above 0.25.
As for IIWP, the figure is not above 0.25; as for YRCI, not above 0.25; as for AQNQ, not above 0.25.
The result for NCYN reads not above 0.25; that for HCDT, not above 0.25; that for EGQL, not above 0.25.
As for KLTF, the figure is not above 0.25.
In the case of TNCL, the enrichment ratio came out at 0.276.
The result for YHFV reads not above 0.25.
As for VNEH, the enrichment ratio was not above 0.25.
The result for PTIW reads not above 0.25; that for FFMV, 1.46.
RVWN: the enrichment ratio is not above 0.25.
The result for FMPC reads not above 0.25; that for PQPW, not above 0.25; that for EGDG, not above 0.25.
As for FYTH, the figure is not above 0.25; as for INGV, not above 0.25.
Regarding EAYA, the enrichment ratio is not above 0.25.
With ITKR, the enrichment ratio was not above 0.25.
As for NNLG, the figure is not above 0.25; as for THDT, not above 0.25.
As for HRSL, the figure is not above 0.25; as for VLKM, not above 0.25; as for DTIN, not above 0.25.
Regarding VMCI, the enrichment ratio is not above 0.25.
The result for HKYE reads not above 0.25; that for WHFT, not above 0.25.
In the case of LMSI, the enrichment ratio was not above 0.25.
As for AFHD, the figure is not above 0.25; as for SVSI, 8.37.
The result for QQKV reads not above 0.25.
The result for ARAW reads not above 0.25; that for PAFG, not above 0.25; that for GCNR, not above 0.25.
Turning to GELP, the enrichment ratio was not above 0.25.
As for NVYC, the figure is not above 0.25; as for RYTG, not above 0.25; as for DTHV, not above 0.25.
As for ADTR, the enrichment ratio is not above 0.25.
The result for VCLL reads 6.51; that for RWVV, not above 0.25.
The result for RQHI reads not above 0.25.
As for LCLR, the figure is 0.551.
For the variant LIWA, the enrichment ratio is not above 0.25.
As for PYKA, the figure is not above 0.25.
Take DLGE: the enrichment ratio is not above 0.25.
The result for LFIQ reads not above 0.25.
Consider LVAW, for which the enrichment ratio came to 0.304.
As for DQYS, the figure is not above 0.25; as for SCYW, not above 0.25; as for SYQV, 0.277.
AHQN: the enrichment ratio is not above 0.25.
As to NWNT, the enrichment ratio was not above 0.25.
The result for RVFL reads not above 0.25; that for SRFE, not above 0.25; that for SHMY, 5.5.
Take QYFT: the enrichment ratio was not above 0.25.
As to GIQL, the enrichment ratio was found to be 0.671.
Take TEKQ: the enrichment ratio was not above 0.25.
Turning to TAPG, the enrichment ratio is not above 0.25.
Turning to TLVP, the enrichment ratio is not above 0.25.
As for FNLF, the figure is not above 0.25; as for RLFC, not above 0.25.
As for THHF, the figure is not above 0.25; as for RWQV, not above 0.25.
Regarding ENFE, the enrichment ratio was not above 0.25.
As for WLYF, the enrichment ratio was not above 0.25.
Regarding DMHY, the enrichment ratio is not above 0.25.
Consider TMWT, for which the enrichment ratio is not above 0.25.
Regarding RDVD, the enrichment ratio was not above 0.25.
As for TMCN, the figure is 3.57.
On to HFKR, for which the enrichment ratio is not above 0.25.
For DTYV, the enrichment ratio was not above 0.25.
As for EDVA, the figure is not above 0.25; as for KHII, not above 0.25; as for ARLL, 8.47.
The result for FQTL reads 1.49.
As for SEYK, the figure is not above 0.25; as for FMNC, not above 0.25.
As for LYYT, the enrichment ratio was not above 0.25.
The result for RKFR reads not above 0.25.
For MYEW, the enrichment ratio was not above 0.25.
As for ETYS, the figure is not above 0.25; as for NVST, not above 0.25; as for IACE, not above 0.25.
In the case of TIMA, the enrichment ratio is 8.98.
Consider SSDS, for which the enrichment ratio is not above 0.25.
As to QACY, the enrichment ratio is not above 0.25.
With PASN, the enrichment ratio came to 2.18.
As to PFWC, the enrichment ratio was not above 0.25.
On to GPQL, for which the enrichment ratio is not above 0.25.
FHKC: the enrichment ratio is not above 0.25.
With YPHK, the enrichment ratio was not above 0.25.
On to RKGN, for which the enrichment ratio is not above 0.25.
As for SNCW, the figure is 10.3.
As for DNYQ, the figure is not above 0.25; as for HWIR, not above 0.25.
